Reference: PubChem BioAssay (Tox21)
Several values for one entry are separate records, joined by “and”; a condition that tells them apart may be missing. Identical values can stand only once. The shares of active, inactive and inconclusive entries below differ from those in the screen. Where the call is inconclusive, the potency comes from a doubtful curve fit. Activity calls are given as the source filed them. The call rests on the fitted dose curve; in most records, active means well fitted inhibition curve with a large enough effect in the signal ratio in the repeat runs (not every such curve was filed as active); inconclusive means weak or mixed curves, or effect the other way; inactive means no such curve, though single readings can be large or run the other way; the % refers to the signal ratio.

Each compound was assayed against Glucocorticoid receptor (Homo sapiens) (UniProt P04150) (assay: qHTS assay to identify small molecule antagonists of the glucocorticoid receptor (GR) signaling pathway (AID 720692)). Conditions: GR-bla HeLa, beta-lactamase FRET ratio, dexamethasone-stimulated, 18 h; activity change, negative = inhibition: at 58.5 µM (top of the series) unless noted.
How it was run: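 Read-out: beta-lactamase FRET substrate fluorescence, 2 h at room temperature, in HeLa cells stably carrying a GRE-driven bla reporter. Compounds were co-incubated with 5 nM dexamethasone agonist (final) for 18 h at 37 C.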
On the % scale 0 is the no-effect control and ±100 the full control effect; potency means the concentration at half of the fitted maximal effect; tags describe the fitted curve by direction and shape or compound fluorescence and quenching.

UniProt P04150, sequence (P04150 whole entry, looked up): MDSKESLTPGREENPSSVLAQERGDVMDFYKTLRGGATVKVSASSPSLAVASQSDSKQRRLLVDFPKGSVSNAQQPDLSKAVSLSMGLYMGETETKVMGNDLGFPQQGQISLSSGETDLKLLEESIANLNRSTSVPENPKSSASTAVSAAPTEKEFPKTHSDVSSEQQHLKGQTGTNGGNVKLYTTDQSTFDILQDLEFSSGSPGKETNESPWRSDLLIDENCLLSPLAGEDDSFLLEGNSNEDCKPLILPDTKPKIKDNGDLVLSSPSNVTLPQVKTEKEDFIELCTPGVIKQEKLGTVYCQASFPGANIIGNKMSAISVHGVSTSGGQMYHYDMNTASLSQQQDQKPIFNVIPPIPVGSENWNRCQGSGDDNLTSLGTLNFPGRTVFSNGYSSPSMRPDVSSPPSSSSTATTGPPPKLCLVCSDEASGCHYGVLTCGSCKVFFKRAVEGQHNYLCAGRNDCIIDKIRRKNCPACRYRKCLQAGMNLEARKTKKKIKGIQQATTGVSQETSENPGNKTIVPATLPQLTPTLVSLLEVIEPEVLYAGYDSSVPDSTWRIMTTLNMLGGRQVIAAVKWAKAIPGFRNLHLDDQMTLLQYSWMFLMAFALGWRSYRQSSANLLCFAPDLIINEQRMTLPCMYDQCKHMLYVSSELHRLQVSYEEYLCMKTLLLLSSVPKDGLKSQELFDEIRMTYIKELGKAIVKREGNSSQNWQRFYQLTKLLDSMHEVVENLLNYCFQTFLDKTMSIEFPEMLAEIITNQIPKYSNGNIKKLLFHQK

SMILES | activity change, negative = inhibition | Potency
Cc1ccc2ccccc2c1[N+](=O)[O-] | inconclusive: 21.4% | 
CCCCCC/C=C/C=O | inconclusive: -38.3% | 
CC(C)CCCCCCOC(=O)CCCCC(=O)OCCCCCCC(C)C |  | inactive
CNCCS(=O)(=O)O |  | inactive
C=C(C)C(=O)OCCOCC | inconclusive: 0.647% [at 78.9 µM] | 
CCCCCCCCCCCCCCCCN | inconclusive: -4.08% | 
CCOC(=O)c1ccc(O)cc1 |  | inactive
CN(C)[C@@H]1C(=O)C(C(=O)NCN2CCCC2)=C(O)[C@@]2(O)C(=O)C3=C(O)c4c(O)cccc4[C@@](C)(O)C3C[C@@H]12 (stereo not given in full) |  | inactive
OCc1ccccc1 |  | inactive
CC[N+](CC)(CC)CCOc1cccc(OCC[N+](CC)(CC)CC)c1OCC[N+](CC)(CC)CC |  | inactive
C=C(C)C(=O)OCCO | inconclusive: -14.5% [at 78.9 µM] | 
CCCCCCCCS(=O)(=O)Cl | inconclusive: -8.57% [at 78.9 µM] | 
OCC(CBr)(CBr)CBr |  | inactive
O=C1OC(=O)c2ccccc21 | inconclusive: 20.1% | 
CC(C)C[C@H]1C(=O)N2CCC[C@H]2[C@]2(O)O[C@](NC(=O)[C@@H]3C=C4c5cccc6[nH]c(Br)c(c56)C[C@H]4N(C)C3)(C(C)C)C(=O)N12 |  | inconclusive: 3.38 µM [inhibitor, full curve] and inconclusive: 13.2 µM [inhibitor, partial curve]
O=C(CCNNC(=O)c1ccncc1)NCc1ccccc1 |  | inactive
O=C(O)c1ccc(C(=O)O)c(C(=O)O)c1 |  | inactive
O=[N+]([O-])c1ccc(/C=C/c2ccc([N+](=O)[O-])cc2S(=O)(=O)O)c(S(=O)(=O)O)c1 | inconclusive: -22.2% | 
O=C1CCCCCO1 | inconclusive: 43% [at 78.9 µM] | 
CCCCCC1CCC(=O)O1 (stereo not given) |  | inactive

SMILES | activity change, negative = inhibition | Potency
CNCCc1ccccn1 |  | inactive
Cc1cccc(O)c1 | inconclusive: 0.136% | 
CC(C)c1ccccc1C(C)C | inconclusive: -34.5% | 
CCCCOC(=O)c1ccc(N)cc1 | inconclusive: -36.1% | 
O=C(c1ccccc1)c1ccccc1 |  | inconclusive: 477 nM [activator, partial curve]
CN1[C@@H]2CC[C@@H]1CC(OC(=O)C(CO)c1ccccc1)C2 (stereo not given in full) |  | inactive
CC1=C(C)C(=O)C(C(CCCCCC(=O)O)c2ccccc2)=C(C)C1=O (stereo not given) |  | inactive
CCCCOc1cc(C(=O)NCCN(CC)CC)c2ccccc2n1 | inconclusive: 11.3% [at 27 µM] | 
CC1(C)C(=O)NC(=O)N1CO |  | inactive
CC1CCC(=O)C1=O (stereo not given) | inconclusive: 10.1% [at 78.9 µM] | 
CC(=O)c1ccc(C)cc1 | inconclusive: 24.9% | 
O=C(O)c1ccc(O)c(O)c1 |  | inactive
CN(C)CCOCCO |  | inactive
CC(Cl)C(Cl)Cl (stereo not given) |  | inactive
CCCCCCCCOCCCN | inconclusive: 38.6% | 
CC(C)OC(=O)C(C)N(C(=O)c1ccccc1)c1ccc(F)c(Cl)c1 (stereo not given) |  | active: 43600 nM
O=C1c2ccccc2C(=O)C1c1ccccc1 | inconclusive: 12.6% [at 27 µM] | 
CCNS(=O)(=O)c1ccc(C)cc1 | inconclusive: 17.7% [at 78.9 µM] | 
Nc1cccc(S(=O)(=O)O)c1 | inconclusive: -1.71% | 
N#CCN(CC#N)CCN(CC#N)CC#N |  | inactive
